Laboratory results as given in the RNAGym collection of RNA variant scans (doi:10.7554/elife.90254).
Read counts are not given, so values of variants with three or more changes are uncertain.

B1: LINE1-mini (parent)
chain: GGCAGAGCUCAACACAGCGUGGCAAAGUGGCUGUGGCUAGACUGCC

Variants of: B1
Test: self-cleavage, relative activity (ratio to wild type); higher = more cleavage; in vitro, sequencing; the parent is a self-cleaving ribozyme
With CUCAGAGCUCAACACAGCGUGGCAUAGUGGCUGUGGCUACACUGCC [G1C G2U A25U G40C] the self-cleavage was 0.06.
GGCAGAGCUCAGCACAGCUUGGCAAAUUGGCUGUUGCUAGUCUGCA [A12G G19U G27U G35U A41U C46A] showed a self-cleavage of 0.01.
Variant GGCGGAGCUCAACACAGCGUGGCAAAGUGGCUGUGGCUAGAUUCCC [A4G C42U G44C] has a self-cleavage of 0.5.
Variant GGCAGAGCUCAACACAGCGGGGCAAAGUAGCUGAGGCUAGAGUGCC [U20G G29A U34A C42G] has a self-cleavage of 0.09.
Work on GGCAGAGCUCAACACAGUGUGGUAAAGUGGCUGUGGCUUGACUGCC [C18U C23U A39U] yielded a self-cleavage of 0.35.
For GGCAGAGCUCCACACAGCGUGGGAAAGUGGAUGUGGCUAGACCGCA [A11C C23G C31A U43C C46A], the self-cleavage was 0.02.
Work on GGCAGAGGACAACAUAGCCUGGCAAAGUGGCUGUGGCCAGACUGAC [C8G U9A C15U G19C U38C C45A] yielded a self-cleavage of 0.05.
For GGGAGAGCUCAACACGGCGUGGCAAAUUGGCUGUGGCUAGACUGCC [C3G A16G G27U], the self-cleavage was 0.11.
GGCAGAACUCAGCACAGCGUUGCAAAGUGGCUGUGGCUAGACUGCA [G7A A12G G21U C46A] showed a self-cleavage of 0.01.
With GGCCUAACUCGACAUAGGGUGGCAAAGUGGCUGUGGCUAGAAUGCC [A4C G5U G7A A11G C15U C18G C42A] the self-cleavage was 0.06.
In the case of GGAAGAGCUCAACAUAGCGUGGCAAUGUGGCUGUGGCUAGACUUCC [C3A C15U A26U G44U], the self-cleavage is reported as 0.25.
Variant UGGAGAGCUCAACACAGCGUGGCAAAGUGGCCGUGGCGAUACUGAC [G1U C3G U32C U38G G40U C45A] has a self-cleavage of 0.08.
Variant GGCAAAGCUCAACAGAGCGAGGCAAAGUGUCCGUGGCUAGACUGCC [G5A C15G U20A G30U U32C] has a self-cleavage of 0.01.
Work on GGCAGACCGGAACACAGCGUGGCAAAGUGGCUGUGGCUAGACUGCC [G7C U9G C10G] yielded a self-cleavage of 0.01.
For GGCAGAGCUCAACACAGCGAGACAAAGGGGCUGUGGCUAGACUGCC [U20A G22A U28G], the self-cleavage was 0.51.
GGCAGAGCACAACACAGCUUGGCAACUUGGCUUUGGCCAGACGACC [U9A G19U A26C G27U G33U U38C U43G G44A] showed a self-cleavage of 0.01.
GGCACAUCUCAACACAGCGUGGCAAAGUGGCUGUGGCGAGACUGCC [G5C G7U U38G] gave a self-cleavage of 0.03.
UGCAGAGCUCAACGCAGCAUUGCAAAGUGGCUGUGGCUAGACUGCU [G1U A14G G19A G21U C46U] showed a self-cleavage of 0.22.
GGCAGAGCUCACCACAGCGUGGCAAAGUGGCUGGAGCCAGACUGCC [A12C U34G G35A U38C] gave a self-cleavage of 0.06.
For GGCAGAGCUAAACACAGCGUGGCAAAAUGGCUUUGGCUAGACUGCC [C10A G27A G33U], the self-cleavage was 0.08.
In the case of GCCAAGGCUCAACACAGCGUGGCUAAGAGGCUGUGGCUAGACUGCC [G2C G5A A6G A24U U28A], the self-cleavage is reported as 0.03.
For GGCGGAGCUCAACGCCGCGUGGCAAAGUGGCUGUGGCUAGAUUGCC [A4G A14G A16C C42U], the self-cleavage was 0.49.
Work on GGCAGAGCUCACCACAGCGUGGCAAAGUGGCUGUGGCUCGCCUGCC [A12C A39C A41C] yielded a self-cleavage of 0.
In the case of GGCAGCGCUCAACACAGCGUGGCAAAGUAGCUGUGACUAGACUGCC [A6C G29A G36A], the self-cleavage is reported as 0.41.
For CGCAGAGCUCAACACAGCGUGGCAAAGUGGCUGAGGCUAGACUGCA [G1C U34A C46A], the self-cleavage was 0.02.
GGAAGAUCUCAACACUGCGUGGCAAAGUGGCUGUGGCUAGACUGCC [C3A G7U A16U] gave a self-cleavage of 0.32.
GGCAGAGCUUACCACAGCGUGGCAGAGUGGCUGUGGCUAGACAGCC [C10U A12C A25G U43A] gave a self-cleavage of 0.
For GGCGGCGCUCAACACGGCGUGGCAAAGUGGCUGUGGCUAGACUGCC [A4G A6C A16G], the self-cleavage was 0.83.
Work on GGCAGAGCUGAACACAGCGUGGCAUUGUGGCUGUAGCCAGACUGCC [C10G A25U A26U G35A U38C] yielded a self-cleavage of 0.01.
For GGCAGAGGUUAACACACCGUAGCGAAGUGGCUGUGGCUAGACUGCC [C8G C10U G17C G21A A24G], the self-cleavage was 0.04.
In the case of GACAGAGCUCGACACAGAGUGGCAAAGUGGCUGUGGCUAGACUGCC [G2A A11G C18A], the self-cleavage is reported as 0.03.
Work on GGCCGCGCUCAACACAGCGGUACAGAGUGGCUGUGGCUAGGCUGCC [A4C A6C U20G G21U G22A A25G A41G] yielded a self-cleavage of 0.13.
For GGCAGAGGUCAACACGGCGUGGCAAAGUUGCUGUGGUUAGACCGCC [C8G A16G G29U C37U U43C], the self-cleavage was 0.
In the case of GACAGAGCUCAACACAGCGAGGGAAAGUGGCUGUGGCUACAGUGCC [G2A U20A C23G G40C C42G], the self-cleavage is reported as 0.03.
GGCAAAUCUCAACACAGCGUGGCAAAGUGGCUGUGGCAAGACUUCC [G5A G7U U38A G44U] showed a self-cleavage of 0.21.
GGCUGAGCUCAACACAGAGUGGCAAUGUGGCUGUGGCUAGACUGCC [A4U C18A A26U] gave a self-cleavage of 0.11.
GGCAGAGCCCAACACAGAUUGGCAAAGUGCCUGUGGCUAGACUACC [U9C C18A G19U G30C G44A] gave a self-cleavage of 0.01.
For GUCAGAGCUCAACACAGCGUGGCAAAGUGGCUGUUGCUAGUCUGCC [G2U G35U A41U], the self-cleavage was 0.03.
Variant GGCAGAGCUCAACAUAGCGUGGGAAAGUGGCUGUAGCUAGACUGCC [C15U C23G G35A] has a self-cleavage of 0.07.
With GCCAGAGCUUAACACAGCGUGGCAAAUUAGCUGUGGCUAGACAGCC [G2C C10U G27U G29A U43A] the self-cleavage was 0.01.
Work on GGCAGAGCUCAACACAGCCUUGCAAAGUGGCUGUGGAUAGACUGCC [G19C G21U C37A] yielded a self-cleavage of 0.02.
In the case of GGCAGAGCUCAACGCAGCGCGGAAAAGUGACUGUGGUUAGACUGCC [A14G U20C C23A G30A C37U], the self-cleavage is reported as 0.01.
For GGCAGAGCUCAACACACCGUGGCAAAAUGGCUGUGGCUAGAAUGCC [G17C G27A C42A], the self-cleavage was 0.07.
For GGCAGAGCUCAAAACAGCGUGGCAAAGUUGUUGUGGCUAGACUGCC [C13A G29U C31U], the self-cleavage was 0.03.
GGCAGAGCUCAACACAGCGUGGCAAAGUUCCGGUGGCUAGACUGCC [G29U G30C U32G] gave a self-cleavage of 0.21.
In the case of GGCAGAGCGCAACACAGCGUGGCAUAGCGGCUGUGGCUAGACUGCC [U9G A25U U28C], the self-cleavage is reported as 0.11.
Variant GGCAGAGCUCAACACAGCGUGGCAGAUUGGCUGUGGAUAGACUGCC [A25G G27U C37A] has a self-cleavage of 0.17.
GGCCGAGCUCAACACAGCGUGGCAAAAUGGCUGUGGCUAGUCUGCC [A4C G27A A41U] showed a self-cleavage of 0.5.
For GGCAGAGCUCAACACAGCGUGGCAAAGUGCAUGUGGCUAGAAUGCC [G30C C31A C42A], the self-cleavage was 0.03.
Work on GGCAGAUCUCAACACAGCGUGGCAACGUGGCUGUGGCCAGACUGCC [G7U A26C U38C] yielded a self-cleavage of 0.03.
GGCAGAGCUCAACAUAGCGUGGCGAAGUUGCUGUGGAUAGACUGCC [C15U A24G G29U C37A] showed a self-cleavage of 0.06.
Variant GGAAGAGCUAAACACAGCGUGGCAAAGUUACUGUGGCUAGACUGCC [C3A C10A G29U G30A] has a self-cleavage of 0.06.
GGCAGAUCUCAACAGAGCGUGGCAAAGCGGCUGUGGCUAGACUGCC [G7U C15G U28C] gave a self-cleavage of 0.04.
In the case of GGCAGAGCUCAACAUAGCGUGGCAAAGUCGCUUUGGCUAGAGUGCC [C15U G29C G33U C42G], the self-cleavage is reported as 0.04.
With GGCAGAACUCAACGCAGCGUGGCAAAGUGGCUGUGUGUAGACUGCC [G7A A14G G36U C37G] the self-cleavage was 0.09.
Variant CGCAGAGCUGAACACAGGGGGGCAAACUGGCUGUGGCUAGACUGCC [G1C C10G C18G U20G G27C] has a self-cleavage of 0.01.
